Data taken from PubChem BioAssay AID624202 (National Center for Advancing Translational Sciences (NCATS), 2012).
The whole screen tested about 380,000 compounds, of which about 4,000 (1.1%) were called active. This list was built around the results that the source calls inconclusive (neither active nor inactive); the mix of calls is not that of the screen. Calls follow the shape of the dose curve; as a rule, active = well fitted activation curve with a large enough effect; inconclusive = small, poorly fitted or top-dose-only effect; inactive = no such curve, though single readings can be large or run the other way. A potency beside an inconclusive call is a rough fit, not a confirmed value.

experiment: qHTS Assay to Identify Small Molecule Activators of BRCA1 Expression; conditions: MCF7-BRCA1-FFLuc reporter, luminescence, 48 h; activation: at 46.1 µM (top of the series), scaled: vehicle 0%, 10 µM genistein 100% unless noted; also: nearly all actives have a fitted effect of over 80% in size
Method in brief: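 MCF7-BRCA1-FFLuc cells, 2000/well in phenol-red-free MEM, attached 2 h then treated 48 h at 37 C. Luciferase luminescence read 15 min after reagent; normalized to genistein maximum activation (10microM) and DMSO, concentration-response fitted.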
Potency is read from the fitted curve at half-maximal effect; tags tell the direction and shape of the fitted curve.

Compound	Potency	activation
Cc1ccc(C(=O)Nc2cccc(-c3ccc(N4CCOCC4)nn3)c2)cc1	inconclusive: 2.51 µM [activator, partial curve, poor fit]	
CCc1ccc(C(c2ccccc2)c2c(C)[nH]c3ccccc23)s1 (stereo not drawn)		inactive: -45.3%
COc1ccc(-c2csc(-n3cccn3)n2)cc1	inconclusive: 2.51 µM [activator, full curve, poor fit]	
COc1ccc(NC(=O)n2nc(OC(=O)c3cccs3)cc2N)cc1	active: 12.6 µM	
O=C(NNC1=NCCC1)c1cccc(Br)c1		inactive: 1.46%
Cc1cc(NC(=O)Nc2ccc3c(ccn3C)c2)sn1	active: 10 µM	
c1ccc2[nH]c(SCc3cscn3)nc2c1	inconclusive: 12.6 µM [activator, partial curve, poor fit]	
COc1ccc2cc3cc(C(=O)N4CCCCCC4)oc3nc2c1		inconclusive: -17.9% [activator]
O=C(Nc1nc2ccccc2[nH]1)c1ccc(F)c(S(=O)(=O)N2CCOCC2)c1	inconclusive: 11.2 µM [activator, partial curve, poor fit]	
CC(=O)NCCNC(=O)c1ccc(CSc2ccc(Cl)cc2)cc1	active: 11.2 µM	
Cc1ccc(CSc2nc(N)cc(N)n2)cc1	inconclusive: 12.6 µM [activator, partial curve, poor fit]	
COc1cccc2oc3cc(C#Cc4ccccn4)ccc3c(=O)c12	active: 8.91 µM	
COc1ccc(-c2nnc(SCc3ccccn3)n2C)cc1	active: 12.6 µM	
CC1CCN(c2ccc(C(=O)NCCc3ccccc3)cn2)CC1	inconclusive: 11.2 µM [activator, partial curve, poor fit]	
COc1cccc(N/N=C/c2cccc(Br)c2O)c1		inactive: 5.03%
CC(C)(C)c1ccc(C(=O)NCCC(=O)N2CCCC2)cc1	inconclusive: 2.24 µM [activator, full curve, poor fit]	
COc1cccc(CNC(=O)CC(NC(C)=O)c2ccccc2)c1 (stereo not drawn)		inactive: 3.16%
COc1cc(OC)c(C(=O)Nc2ccc(N(C)C)cc2)cc1OC	active: 8.91 µM	
O=C(Nc1ccc2c(c1)CCC2)C1CCCN(c2ncccn2)C1 (stereo not drawn)	inconclusive: 5.62 µM [activator, full curve, poor fit]	
CCOC(=O)Cc1csc(NC(=S)NC(=O)c2cc(OC)c(OC)c(OC)c2)n1		inactive: -24.4%
COc1cc(/C=N/N=C(N)N)ccc1OCc1ccc(Cl)cc1		inactive: 6.48%
Cc1ccc2c(c1)-c1c(ssc1=S)C(C)(C)N2C(=O)CSC1=NCCS1		inactive: 5.46%
CC(C)C1NCCc2c1sc1ccccc21 (stereo not drawn)		inactive: 2.52%

Compound	Potency	activation
COc1ccc(-c2ncccc2O)cc1	inconclusive: 17.8 µM [activator, single point]	
C#CCN1C(=O)S/C(=C/c2cc(C)n(CC)c2C)C1=O	inconclusive: 1.12 µM [activator, full curve, poor fit]	
COc1ccc(C2CC(c3ccc(F)cc3)=NN2c2ccccc2)cc1OC (stereo not drawn)		inactive: 32.4%
O=C1c2ccccc2CN1CCSC(=S)N1CCOCC1	inconclusive: 3.55 µM [activator, full curve, poor fit]	
Nc1cc(N)nc(SCc2ccccc2)n1	inconclusive: 11.2 µM [activator, partial curve, poor fit]	
Cc1cc(C(=O)OCC(N)=O)c(C)n1-c1ccccc1		inactive: 32.6%
O=[N+]([O-])c1ccc2cn(-c3ccccc3)nc2c1	inconclusive: 1.58 µM [activator, full curve, poor fit]	
O=C(CSc1ncnc2ccccc12)c1cccs1		inactive: -1.28%
Cc1cnc(NC(=O)Nc2ccc(Cl)cc2)s1	inconclusive: 2 µM [activator, full curve, poor fit]	
NC(=O)c1cc(Cc2ccccc2)sc1NC(=O)c1ccco1	active: 7.94 µM	
O=C(Nc1nc2cc3c(cc2s1)OCCO3)c1ccncc1	inconclusive: 2.51 µM [activator, full curve, poor fit]	
O=C(/C=C/c1ccc(Cl)c(Cl)c1)N1CCc2ccccc21	inconclusive: 2.82 µM [activator, full curve, poor fit]	
Cc1cc(/C=C2/C(=N)N3C(=NC2=O)SN=C3S(C)(=O)=O)c(C)n1-c1ccccc1	inconclusive: 0.562 µM [activator, full curve, poor fit]	
O=C(Cn1cc(SCc2ccccc2Cl)c2ccccc21)N1CCOCC1	active: 11.2 µM	
CCOC(=O)C1CCCN(C(=O)c2ccc(-c3ccccc3Cl)o2)C1 (stereo not drawn)	inconclusive: 3.55 µM [activator, partial curve, poor fit]	
Cc1ccc(-c2nnc(NC(=O)c3ccco3)s2)cc1	active: 2.24 µM	
CN(CC(=O)Nc1ccc(Cl)c(Cl)c1)Cc1nnc(-c2ccc(F)cc2)o1		inactive: -19.3%
Cc1noc(C)c1CSCC(=O)N1CCN(c2ccc(F)cc2)CC1		inactive: -27.3%
O=C(Nc1ccc2oc(-c3ccc4ccccc4c3)nc2c1)c1cccs1	inconclusive: 1.12 µM [activator, full curve, poor fit]	
O=C(N/N=C/c1ccc(-c2ccc(S(=O)(=O)Nc3ncccn3)cc2)o1)c1cc2ccccc2cc1O		inactive: -26.8%
Cc1ccc(CC(=O)Nc2ncc([N+](=O)[O-])s2)cc1	inconclusive: 7.94 µM [activator, partial curve, poor fit]	
c1ccc(-n2ncc3c(N4CCC5(CC4)OCCO5)ncnc32)cc1	inconclusive: 1.78 µM [activator, full curve, poor fit]	
O=C(COc1ccc(Cl)cc1)N1CCCCC1	inconclusive: 25.1 µM [activator, single point]	

Compound	Potency	activation
COc1ccc(OCc2cc(C(=O)N3CCSCC3)no2)c(Cl)c1	active: 11.2 µM	
Cc1cc(/C=N/NC(=O)c2ccncc2)c(C)n1-c1ccccc1	active: 7.94 µM	
S=C(Nc1ccc(Br)cc1Cl)N1CCCC1	inconclusive: 11.2 µM [activator, partial curve, poor fit]	
O=C(NCC1CCCO1)c1cc2cc(Cl)ccc2[nH]1 (stereo not drawn)	inconclusive: 11.2 µM [activator, partial curve, poor fit]	
COc1ccccc1NC(=O)C/C(C)=N/NC(=O)c1ccccn1	inconclusive: 10 µM [activator, partial curve, poor fit]	
c1ccc(CN2CCN(c3nc4ccccc4s3)CC2)cc1	inconclusive: 2 µM [activator, partial curve, poor fit]	
CC1C/C(=N\NC(=O)CCc2ccc(S(=O)(=O)N3CCOCC3)cc2)CC(C)(C)C1 (stereo not drawn)		inactive: -1.98%
CCCCCc1ccc(-c2ccc(OC)cc2)nc1	active: 8.91 µM	
O=c1c(Br)c(NCc2ccccc2)cnn1-c1ccc(F)cc1	inconclusive: 15.8 µM [activator, partial curve, poor fit]	
O=C(N/N=C/c1cn(-c2ccccc2)nc1-c1ccc2c(c1)OCCO2)c1ccncc1	inconclusive: 3.16 µM [activator, full curve, poor fit]	
COc1ccc(NC(=O)c2noc3c2CCCCC3)cc1	inconclusive: 1 µM [activator, full curve, poor fit]	
CC1(C)OC(C(O)(c2ccccc2)c2ccccc2)[C@@H](C(O)(c2ccccc2)c2ccccc2)O1 (stereo partly drawn)		inactive: 3.03%
Cc1ccc(CNc2ccc(N3CCOCC3)cc2)cc1	inconclusive: 1.78 µM [activator, full curve, poor fit]	
COc1ccc(C(=O)NNC(=O)C(=O)Nc2ccc(C)cc2)cc1		inactive: -12.4%
Cc1ccc(S(=O)(=O)Oc2ccc3c(c2)O/C(=C\c2cccnc2)C3=O)cc1		inactive: -1.53%
COc1ccc(-c2ccc(SCC(=O)c3cccs3)nn2)cc1	inconclusive: 22.4 µM [activator, partial curve, poor fit]	
CC1CCC(C(C)C)C(=O)/C1=C/c1ccc(N)cc1 (stereo not drawn)	inconclusive: 20 µM [activator, partial curve, poor fit]	
O=C(Cc1ccc(F)cc1)c1ccc(O)cc1O	active: 12.6 µM	
COc1cccc(C(=O)N[C@@H](CCSC)c2nc3ccccc3[nH]2)c1		inactive: -14.6%
NC(=O)c1ccc(OCc2ccccc2)nc1	inconclusive: 2.82 µM [activator, full curve, poor fit]	
COC(=O)c1ccc(CSc2nc(N)cc(N)n2)cc1	inconclusive: 22.4 µM [activator, single point]	
Cc1ccc(NC(=O)NCCCc2ccccc2)cc1	inconclusive: 25.1 µM [activator, single point]	
